Source: PubChem BioAssay (NCATS)
This list was built around the results that the source calls inconclusive (neither active nor inactive); the mix of calls is not that of the screen. Active and inactive are the calls of the source. Calls come from the whole dose curve; as a rule, active = well fitted curve in either direction with a large enough effect (not every such curve was filed as active); inconclusive = small, poorly fitted or top-dose-only effect, or another doubt; inactive = flat fitted curve, though single readings scatter.

Assay: NFAT Signaling Pathway (AID 444);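 note: carbachol stimulus at about its EC50 of 1 µM final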
Details: Jurkat NFAT-bla M1, carbachol, beta-lactamase ratio, 5 h; at 17.2 µM (top of the series) unless noted
Procedure, shortened: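 Jurkat cells with NFAT-driven β-lactamase reporter and co-expressed M1 receptor, stimulated with carbachol (final 1 uM, ~EC50), compound titration, 5 h at 37 °C. CCF4 loaded 1 h at RT; 460/530 nm ratio gave %activity and AC50.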
% is set by controls: 0 for no effect and ±100 for the full control effect.

Activity change, negative = inhibition, inactive:
Cc1cc(N2C(=O)C(=O)/C(=C(/O)c3ccc(F)cc3)C2c2cccc(Br)c2)no1 (stereo not drawn) 2.37%, COc1ccc(/C(O)=C2/C(=O)C(=O)N(CCCN(C)C)C2c2ccco2)cc1Cl (stereo not drawn) -5.99%, Cn1ncc2nc[nH]c(=O)c21 -1.7%, Cn1c(=O)[nH]c(=O)c2c1nc(N1CCN(c3cccc(Cl)c3)CC1)n2CCCc1ccccc1 -11.9%

Activity change, negative = inhibition, inconclusive:
COc1ccc2c(c1OC)C(=O)N1c3ccccc3C(=O)N(c3ccccc3F)C21 (stereo not drawn) -69.9% [inhibitor], Cc1ccc(/C(O)=C2/C(=O)C(=O)N(Cc3ccco3)C2c2cccs2)cc1 (stereo not drawn) -0.472% [inhibitor], C=CCn1c(SCC(=O)OC)nc2sc3c(c2c1=O)CCN(C)C3 -73.7% [inhibitor], COC(=O)N1CCC2(CCCN(Cc3nccs3)C2)CC1 -61.9% [inhibitor] [at 7.69 µM], O=C(c1ccc(F)cc1)N1CCC(N2CCCCCC2)CC1 -50.8% [inhibitor], COc1cccc(CNc2ccc(Br)cn2)c1O 9.63% [inhibitor], CCCc1cc(Nc2c(C)n(C)n(-c3ccccc3)c2=O)n2c(nc3ccccc32)c1C#N -43.8% [inhibitor], CCOC(=O)c1[nH]c2ccc(Br)cc2c1NC(=O)CNC -43.3% [inhibitor], O=S(=O)(c1ccccc1)N1CCC2(CC1)CN(c1ccncc1)C2 -63% [inhibitor] [at 7.69 µM]
